Results reported in PubChem BioAssay AID602310 (National Center for Advancing Translational Sciences (NCATS), 2012).
“And” between values parts separate entries of the source, which are not always exact repeats. Equal values may be shown once. The whole screen tested about 410,000 compounds, of which about 310 (0.076%) were called active. Inconclusive means that the source gave no clear call. Such entries were picked first, then a sample of the others. The call rests on the fitted dose curve; in most records, active means well fitted curve in the direction sought with a large enough effect; inconclusive means small, poorly fitted or top-dose-only effect; inactive means flat fitted curve, though single readings scatter. Where the call is inconclusive, the potency comes from a doubtful curve fit.
Further: nearly all actives have a fitted effect of over 60% in size.
Potency means the concentration at half of the fitted maximal effect; tags describe the fitted curve by direction and shape.

What follows are molecules tested against DNA dC->dU-editing enzyme APOBEC-3G (Homo sapiens) (UniProt Q9HC16) (assay: qHTS for Inhibitors of Vif-A3G Interactions: qHTS). Settings: HeLa A3G-eYFP + Vif (tagged APOBEC3G with the HIV-1 protein that degrades it), YFP fluorescence, overnight; series mostly up to 46.1 µM.
Sequence of UniProt Q9HC16 (Q9HC16 whole entry, looked up): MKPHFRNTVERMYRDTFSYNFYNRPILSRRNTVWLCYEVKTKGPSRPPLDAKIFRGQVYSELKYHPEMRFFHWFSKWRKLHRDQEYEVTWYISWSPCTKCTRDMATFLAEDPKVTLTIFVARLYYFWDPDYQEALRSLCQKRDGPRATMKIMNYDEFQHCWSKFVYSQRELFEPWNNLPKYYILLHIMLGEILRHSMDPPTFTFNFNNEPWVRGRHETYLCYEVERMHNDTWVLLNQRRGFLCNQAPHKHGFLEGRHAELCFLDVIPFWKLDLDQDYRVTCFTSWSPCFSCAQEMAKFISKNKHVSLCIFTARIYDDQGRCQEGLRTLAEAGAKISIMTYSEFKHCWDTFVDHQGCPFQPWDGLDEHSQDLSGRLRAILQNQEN
How it was run: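 Read-out is eYFP fluorescence (Ex 488/Em 500-530) from Vif-expressing HeLa A3G-eYFP cells; more signal means A3G escaped Vif-mediated degradation. Cells plated overnight, compound pinned in, incubated overnight at 37 deg C.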
With `CCC(=O)OCc1cnc(C)c2oc(=O)c(C(=O)Nc3ccccc3C(F)(F)F)cc12` the Potency was inconclusive: 3.16 µM [inhibitor, single point]. With `O=c1cc(-c2ccccc2)nc2cc(-c3ccc(F)cc3)[nH]n12` the Potency was inconclusive: 3.98 µM [inhibitor, full curve, poor fit] and inconclusive: 3.55 µM [inhibitor, full curve]. In the case of `CCCS(=O)(=O)c1c(S(=O)(=O)CCC)c2c(C)cccn2c1C(=O)N/N=C/c1cc(O)cc(O)c1`, the Potency is reported as inconclusive: 22.4 µM [inhibitor, single point]. With `C#CCOCCOCCOCCNc1nc(N2CCN(C(=O)CCCCCCCCCCNC(=O)[C@H](CCCCN)n3cc(C[C@@H](C)CC)nn3)CC2)nc(N2CCN(C(=O)CCCCCCCCCCNC(=O)[C@H](CCCN=C(N)N)n3cc(C[C@@H](C)CC)nn3)CC2)n1` the Potency was inconclusive: 35.5 µM [inhibitor, single point]. `COC(CNC(=O)c1cccc(-n2c(=S)[nH]c3cc(Cl)ccc3c2=O)c1)OC` was tested, and the Potency was “inactive”. For `CCc1ccc2nc(N(CCCN(C)C)C(=O)c3ccc(S(=O)(=O)N(C)C4CCCCC4)cc3)sc2c1`, the Potency was inconclusive: 0.282 µM [inhibitor, partial curve, poor fit]. With `O=C1NC2c3c(Cl)sc(Cl)c3C(=O)C2O1` (stereo unspecified) the Potency was “inactive”. For `N#C/C(=C\c1cc(O)c(O)c(O)c1)C(N)=O`, the Potency was “inactive”. In the case of `COc1ccc(O)c(C2Nc3ccccc3-n3c(-c4ccccc4)c4c(=O)n(C)c(=O)n(C)c4c32)c1` (stereo unspecified), the Potency is reported as inconclusive: 35.5 µM [inhibitor, single point]. In the case of `COc1cccc(/C=N/Nc2nc3ccccc3n3cnnc23)c1O`, the Potency is reported as inconclusive: 14.1 µM [inhibitor, single point]. For `CCCCCCSc1ccc(-c2nc3cnccn3c2NCCCC)cc1`, the Potency was inconclusive: 12.6 µM [inhibitor, partial curve, poor fit]. `CC(C)CC(c1nnnn1C(C)C)N1CCN(C(=O)c2ccco2)CC1` (stereo unspecified) was tested, and the Potency was “inactive”. In the case of `CC(=O)Nc1ccc(OCC(O)Cn2c(C)nc3ccccc32)cc1` (stereo unspecified), the Potency is reported as “inactive”. With `COc1ccc(S(=O)(=O)N2CCCCCC2)cc1C(=O)N(C)Cc1ccc(C(C)(C)C)cc1` the Potency was “inactive”. `O=C(O)CCn1c(O)c(C=C2N=c3ccccc3=N2)sc1=S` was tested, and the Potency was inconclusive: 25.1 µM [inhibitor, single point]. `Cc1cc2cc3c(cc2nc1SCC(=O)Nc1ccccc1)CCC3` was tested, and the Potency was inconclusive: 5.62 µM [inhibitor, single point]. For `Cc1cccc(NS(=O)(=O)c2ccc3c(c2)Cc2cc(S(=O)(=O)Nc4cccc(C)c4C)ccc2-3)c1C`, the Potency was inconclusive: 28.2 µM [inhibitor, single point]. With `CC1(c2ccccc2)CC(C)(C)N(C(=O)CSc2nnc(N)s2)c2ccccc21` (stereo unspecified) the Potency was inconclusive: 35.5 µM [inhibitor, single point]. `O=C/C(=C\Nc1ccccn1)c1nc2ccccc2o1` was tested, and the Potency was inconclusive: 35.5 µM [inhibitor, single point]. `CCOC(=O)c1c(C)n(S(=O)(=O)c2ccc(C)cc2)c2ccc(O)c(C(=O)O)c12` was tested, and the Potency was inconclusive: 35.5 µM [inhibitor, single point]. For `COc1cccc(C2C=C(c3ccc(OC)cc3OC)Nc3nnnn32)c1` (stereo unspecified), the Potency was inconclusive: 14.1 µM [inhibitor, partial curve, poor fit]. With `N#Cc1c(NC(=O)CSc2ccccn2)oc(-c2ccccc2)c1-c1ccccc1` the Potency was “inactive”. For `O=C(c1c(F)c(F)c(F)c(F)c1F)N1CCN(c2cccc(C(F)(F)F)c2)CC1`, the Potency was inconclusive: 25.1 µM [inhibitor, single point]. `O=C(Nc1ccccc1)C1C2CCC3C(CCC21)C3(Cl)Cl` (stereo unspecified) was tested, and the Potency was “inactive”. With `CC(/C=N/NC(=O)c1cc(-c2ccc3ccccc3c2)n[nH]1)=C\c1ccco1` the Potency was inconclusive: 15.8 µM [inhibitor, partial curve, poor fit]. With `CC(C)C[C@H](N)c1cn([C@@H](CCCCN)C(=O)N2CCNCC2)nn1` the Potency was inconclusive: 1.26 µM [inhibitor, full curve, poor fit]. In the case of `CCCCNC(=O)CC(=O)Nc1ccccc1C(=O)O`, the Potency is reported as “inactive”. With `Cc1nc(C/C(=N\N)c2ccc(O)cc2O)cs1` the Potency was inconclusive: 35.5 µM [inhibitor, single point]. `Cc1ccc(C)c(OCCn2cc(/C=C(/C#N)C(=O)NCC3CCCO3)c3ccccc32)c1` (stereo unspecified) was tested, and the Potency was inconclusive: 22.4 µM [inhibitor, single point]. `Cc1ccc(C2CC(c3ccc(Cl)cc3)=NNC2=O)cc1` (stereo unspecified) was tested, and the Potency was “inactive”. With `Cc1ccc(C(=O)NN(C)c2nc3ccccc3nc2C(F)(F)F)cc1` the Potency was inconclusive: 2.51 µM [inhibitor, full curve]. In the case of `CN(C)c1ccc(/C=C/c2ccnc3cc(Cl)ccc23)cc1`, the Potency is reported as inconclusive: 2.82 µM [inhibitor, full curve, poor fit]. `CCc1nnc2c(NCCc3ccc(OC)c(OC)c3)nc3ccccc3n12` was tested, and the Potency was “inactive”. For `Cc1ccc(-c2[nH]ncc2C(=O)c2ccc(Br)cc2)c(O)c1`, the Potency was “inactive”. With `NNc1cc2c(nn1)CCN(C(=O)c1ccccc1)C2` the Potency was inconclusive: 28.2 µM [inhibitor, single point]. `N#C/C(=C\c1ccc(-c2ccc(F)cc2F)o1)c1nc2ccccc2[nH]1` was tested, and the Potency was active: 11.2 µM. In the case of `Cc1ccc(C)c(S(=O)(=O)N2CCN(C(=O)CNC(=O)c3ccc4ccccc4c3)CC2)c1`, the Potency is reported as inconclusive: 22.4 µM [inhibitor, single point]. `COc1ccc(CNC(=O)COC(=O)c2ccc(OCc3c(C)noc3C)cc2)cc1OC` was tested, and the Potency was “inactive”. In the case of `CCOc1cccc(CNc2ccc(O)cc2)c1OCc1ccccc1Cl`, the Potency is reported as inconclusive: 25.1 µM [inhibitor, single point]. For `O=C(/C=C/c1cccc(Cl)c1)c1nc2ccccc2[nH]1`, the Potency was inconclusive: 22.4 µM [inhibitor, single point]. In the case of `Brc1ccc2[nH]c3c(N4CCc5ccccc5C4)ncnc3c2c1`, the Potency is reported as inconclusive: 25.1 µM [inhibitor, single point].
